# Measurements as given in the supplement of paper PMC8728848.
# This is one part of the list.
# Tests used:
# Assay in all cases: glycan array binding signal (z-score within array); higher = stronger binding
# Settings in all cases: glycan notation: IUPAC condensed, linker removed
# [1] = biological target: Gal(b1-4)GlcNAc(b1-3)Gal(b1-4)GlcNAc(b1-3)Gal(b1-4)GlcNAc
# Outline: (§1)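 Glycan array data were curated from 3228 arrays in the Consortium for Functional Glycomics database and kept only where the protein sequence was available. Glycan names were converted to IUPAC-condensed notation, and columns mapping to the same glycan were averaged. The binding signal is a within-array Z-score, averaged across arrays of the same protein sequence at different concentrations or buffers and across linkers. Negative Z-scores can be read as non-binding.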
# [2] = biological target: Gal(b1-4)GlcNAc(b1-3)Gal(b1-4)GlcNAc(b1-3)Gal(b1-4)GlcNAc(b1-2)Man(a1-3)[Gal(b1-4)GlcNAc(b1-3)Gal(b1-4)GlcNAc(b1-3)Gal(b1-4)GlcNAc(b1-2)Man(a1-6)]Man(b1-4)GlcNAc(b1-4)GlcNAc
# Outline: as §1
# [3] = biological target: Gal(b1-4)GlcNAc(b1-3)Gal(b1-4)GlcNAc(b1-3)Gal(b1-4)GlcNAc(b1-2)Man(a1-3)[Gal(b1-4)GlcNAc(b1-3)Gal(b1-4)GlcNAc(b1-3)Gal(b1-4)GlcNAc(b1-2)Man(a1-6)]Man(b1-4)GlcNAc(b1-4)[Fuc(a1-6)]GlcNAc
# Outline: as §1
# [4] = biological target: Gal(b1-4)GlcNAc(b1-3)Gal(b1-4)GlcNAc(b1-3)Gal(b1-4)GlcNAc(b1-2)[Gal(b1-4)GlcNAc(b1-3)Gal(b1-4)GlcNAc(b1-3)Gal(b1-4)GlcNAc(b1-6)]Man(a1-6)[Gal(b1-4)GlcNAc(b1-3)Gal(b1-4)GlcNAc(b1-3)Gal(b1-4)GlcNAc(b1-2)Man(a1-3)]Man(b1-4)GlcNAc(b1-4)[Fuc(a1-6)]GlcNAc
# Outline: as §1
# [5] = biological target: Gal(b1-4)GlcNAc(b1-3)Gal(b1-4)GlcNAc(b1-3)Gal(b1-4)GlcNAc(b1-3)Gal(b1-4)GlcNAc(b1-2)Man(a1-3)[Gal(b1-4)GlcNAc(b1-3)Gal(b1-4)GlcNAc(b1-3)Gal(b1-4)GlcNAc(b1-3)Gal(b1-4)GlcNAc(b1-2)Man(a1-6)]Man(b1-4)GlcNAc(b1-4)GlcNAc
# Outline: as §1
# [6] = biological target: Gal(b1-4)GlcNAc(b1-3)Gal(b1-4)GlcNAc(b1-3)Gal(b1-4)GlcNAc(b1-3)Gal(b1-4)GlcNAc(b1-2)Man(a1-3)[Gal(b1-4)GlcNAc(b1-3)Gal(b1-4)GlcNAc(b1-3)Gal(b1-4)GlcNAc(b1-3)Gal(b1-4)GlcNAc(b1-2)Man(a1-6)]Man(b1-4)GlcNAc(b1-4)[Fuc(a1-6)]GlcNAc
# Outline: as §1
# [7] = biological target: Gal(b1-4)GlcNAc(b1-3)Gal(b1-4)GlcNAc(b1-3)Gal(b1-4)GlcNAc(b1-3)Gal(b1-4)GlcNAc(b1-2)[Gal(b1-4)GlcNAc(b1-3)Gal(b1-4)GlcNAc(b1-3)Gal(b1-4)GlcNAc(b1-3)Gal(b1-4)GlcNAc(b1-6)]Man(a1-6)[Gal(b1-4)GlcNAc(b1-3)Gal(b1-4)GlcNAc(b1-3)Gal(b1-4)GlcNAc(b1-3)Gal(b1-4)GlcNAc(b1-2)Man(a1-3)]Man(b1-4)GlcNAc(b1-4)[Fuc(a1-6)]GlcNAc
# Outline: as §1
# [8] = biological target: Gal(b1-4)GlcNAc(b1-3)Gal(b1-4)GlcNAc(b1-3)Gal(b1-4)GlcNAc(b1-3)Gal(b1-4)GlcNAc(b1-3)Gal(b1-4)GlcNAc(b1-2)Man(a1-3)[Gal(b1-4)GlcNAc(b1-3)Gal(b1-4)GlcNAc(b1-3)Gal(b1-4)GlcNAc(b1-3)Gal(b1-4)GlcNAc(b1-3)Gal(b1-4)GlcNAc(b1-2)Man(a1-6)]Man(b1-4)GlcNAc(b1-4)GlcNAc
# Outline: as §1
# [9] = biological target: Gal(b1-4)GlcNAc(b1-3)Gal(b1-4)GlcNAc(b1-3)Gal(b1-4)GlcNAc(b1-3)Gal(b1-4)GlcNAc(b1-3)Gal(b1-4)GlcNAc(b1-2)Man(a1-3)[Gal(b1-4)GlcNAc(b1-3)Gal(b1-4)GlcNAc(b1-3)Gal(b1-4)GlcNAc(b1-3)Gal(b1-4)GlcNAc(b1-3)Gal(b1-4)GlcNAc(b1-2)Man(a1-6)]Man(b1-4)GlcNAc(b1-4)[Fuc(a1-6)]GlcNAc
# Outline: as §1
# [10] = biological target: Gal(b1-4)GlcNAc(b1-3)Gal(b1-4)GlcNAc(b1-3)Gal(b1-4)GlcNAc(b1-3)Gal(b1-4)GlcNAc(b1-3)Gal(b1-4)GlcNAc(b1-2)[Gal(b1-4)GlcNAc(b1-3)Gal(b1-4)GlcNAc(b1-3)Gal(b1-4)GlcNAc(b1-3)Gal(b1-4)GlcNAc(b1-3)Gal(b1-4)GlcNAc(b1-6)]Man(a1-6)[Gal(b1-4)GlcNAc(b1-3)Gal(b1-4)GlcNAc(b1-3)Gal(b1-4)GlcNAc(b1-3)Gal(b1-4)GlcNAc(b1-3)Gal(b1-4)GlcNAc(b1-2)Man(a1-3)]Man(b1-4)GlcNAc(b1-4)[Fuc(a1-6)]GlcNAc
# Outline: as §1
# [11] = biological target: Gal(b1-4)GlcNAc(b1-3)Gal(b1-4)GlcNAc(b1-3)Gal(b1-4)GlcNAc(b1-3)Gal(b1-4)GlcNAc(b1-3)Gal(b1-4)GlcNAc(b1-3)Gal(b1-4)GlcNAc(b1-2)Man(a1-3)[Gal(b1-4)GlcNAc(b1-3)Gal(b1-4)GlcNAc(b1-3)Gal(b1-4)GlcNAc(b1-3)Gal(b1-4)GlcNAc(b1-3)Gal(b1-4)GlcNAc(b1-3)Gal(b1-4)GlcNAc(b1-2)Man(a1-6)]Man(b1-4)GlcNAc(b1-4)GlcNAc
# Outline: as §1
# [12] = biological target: Gal(b1-4)GlcNAc(b1-3)Gal(b1-4)GlcNAc(b1-3)GalNAc
# Outline: as §1
# [13] = biological target: Gal(b1-4)GlcNAc(b1-3)Gal(b1-4)GlcNAc(b1-3)[Gal(b1-4)GlcNAc(b1-3)Gal(b1-4)GlcNAc(b1-6)]GalNAc
# Outline: as §1
# [14] = biological target: Gal(b1-4)GlcNAc(b1-3)Gal(b1-4)GlcNAc(b1-6)[Gal(b1-3)]GalNAc
# Outline: as §1
# [15] = biological target: Gal(b1-4)GlcNAc(b1-3)Gal(b1-4)[Fuc(a1-3)]GlcNAc(b1-3)Gal(b1-4)[Fuc(a1-3)]GlcNAc
# Outline: as §1
# [16] = biological target: Gal(b1-4)GlcNAc(b1-3)GalNAc
# Outline: as §1
# [17] = biological target: Gal(b1-4)GlcNAc(b1-3)[Fuc(a1-3)GlcNAc(b1-6)]Gal(b1-4)Glc
# Outline: as §1
# [18] = biological target: Gal(b1-4)GlcNAc(b1-3)[Gal(b1-4)GlcNAc(b1-6)]Gal(b1-4)GlcNAc
# Outline: as §1
# [19] = biological target: Gal(b1-4)GlcNAc(b1-3)[GlcNAc(b1-6)]Gal(b1-4)GlcNAc
# Outline: as §1
binder,measurement,setting,value
Epa1 (Candida glabrata) (protein) MGSSHHHHHHSSGLVPRGSHMTSSNDISLASKDPTTFPLGCSPDITTPKKGLSMELYSYDFRKKGSYPCWDAAYLDPNYPRTGYKSHRLLAKVDGVTGNINFYYHATKGCTPQLGHLPASYNYPKPLTMTNFTMLLYGYFRPKVTGFHTFTISADDLLFVNFGAGNAFDCCRRDSSADHFGNYQAYAIWGSKTAKDELTVHLDAGVYYPIRLFYNNREYDGALSFTFKTESNENTVSDFSEYFFSLDDTEEGCPGLISYD,glycan array binding signal (z-score),[1],-0.021
same,glycan array binding signal (z-score),[2],0.944
same,glycan array binding signal (z-score),[3],1.77
same,glycan array binding signal (z-score),[4],3.06
same,glycan array binding signal (z-score),[5],0.374
same,glycan array binding signal (z-score),[6],0.354
same,glycan array binding signal (z-score),[7],1.76
same,glycan array binding signal (z-score),[8],0.744
same,glycan array binding signal (z-score),[9],0.385
same,glycan array binding signal (z-score),[10],1.62
same,glycan array binding signal (z-score),[11],0.53
same,glycan array binding signal (z-score),[12],-0.122
same,glycan array binding signal (z-score),[13],0.952
same,glycan array binding signal (z-score),[14],0.939
same,glycan array binding signal (z-score),[15],-0.056
same,glycan array binding signal (z-score),[16],-0.015
same,glycan array binding signal (z-score),[17],-0.128
same,glycan array binding signal (z-score),[18],0.516
same,glycan array binding signal (z-score),[19],0.168
